Read-out in experiment [1]: Interleukin-8 (IL8), CXCL8 (gene 3576)
Put plainly: BSK_hDFCGF_IL8: BioMAP Diversity Plus: hDFCGF Assay for Interleukin-8 (IL8) Biomarker Activity (AID 2283058). The following applies: actives raise or lower the signal; primary human foreskin fibroblasts. The essentials: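 hDFCGF human dermal fibroblasts; 24 h chemical exposure; IL-8 by ELISA; bidirectional curve fit vs DMSO baseline; gain or loss of signal scored.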

Read-out in experiment [2]: Interleukin-8 (IL8), CXCL8 (gene 3576)
Put plainly: BSK_LPS_IL8: BioMAP Diversity Plus: LPS Assay for Interleukin-8 (IL8) Biomarker Activity (AID 2283078). The settings on record: actives raise or lower the signal; primary human HUVEC with PBMC. In short, it runs like this: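 Human umbilical vein endothelial cells co-cultured with PBMC were stimulated with LPS; IL-8 levels were measured by ELISA 24 h after chemical dosing. Activity was fitted bidirectionally against DMSO as negative control and baseline.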

Experiment [3] is described as follows: BSK_LPS_PGE2: BioMAP Diversity Plus: LPS Assay for Prostaglandin E2 (PGE2) Biomarker Activity (AID 2283082).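 Further: secreted prostaglandin E2 measured by ELISA in LPS-stimulated co-culture.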 The following applies: actives raise or lower the signal; primary human HUVEC with PBMC. The essentials:
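LPS-activated HUVEC/PBMC co-culture; cmpd dosed, 24 h; PGE2 by ELISA; bidirectional fit vs DMSO; SRB (0.1%, TCA-fixed, 560 nm) in parallel plates for overt cytotox.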

Read-out in experiment [4]: Glutathione S-Transferase (GSTA2), GSTA2 (gene 2939)
Put plainly: LTEA_HepaRG_GSTA2: Life Technologies and Expression Analysis (LTEA) Assay for Glutathione S-Transferase (GSTA2) using HepaRG (AID 2283497). The settings on record: actives raise or lower the signal; mRNA level, 48 h. In short, it runs like this: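 Differentiated human HepaRG cells were exposed in duplicate for 48 h in serum-free induction medium, 8 points from 100 uM top in half-log steps, 0.5% DMSO. GSTA2 mRNA was measured by TaqMan qRT-PCR, normalized to ACTB, GAPDH and POLR2A; bidirectional fit versus DMSO.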

Experiment [5] can be described thus: CCTE_Shafer_MEA_dev_firing_rate_mean: CCTE's Neural Network Formation Assay for Mean Firing Rate, Shafer Lab (AID 2284031).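 Further: curve fitted for loss of firing so AC50 reflects decreased mean firing rate.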 The essentials:
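Rat primary cortical neurons were seeded on multielectrode arrays and treated from plating through day 12, with redosing at each feed. Spontaneous spiking was recorded four times; mean firing rate AUC was fitted downward against DMSO.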

Experiment [6] can be described thus: CCTE_Shafer_MEA_dev_active_electrodes_number: CCTE's Neural Network Formation Assay for Number of Active Electrodes, Shafer Lab (AID 2284040; active means hit-call score of the fitted dose curve at least 0.9, where 1 is the maximum;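 further: potency for loss of active electrodes versus DMSO so lower counts are hits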). In short, it runs like this:
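Primary rat cortical neurons on 16-electrode MEA wells, exposed from day 0 through day 12 with compound renewed at DIV 5 and 9 feeds. Active electrodes (mean firing ≥5 spikes/min) counted at DIV 5, 7, 9, 12; trapezoidal AUC across days, loss-of-signal versus DMSO.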

A short description of experiment [7]: CCTE_Mundy_HCI_Cortical_Synap_Neur_Matur_CellBodySpotCount: CCTE's Synaptogenesis and Neurite Maturation Assay in rat cortical cells for Cell Body Spot Count, Mundy Lab (AID 2284223). The essentials:
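Rat primary cortical cultures received AraC at DIV 5 to arrest glia, were dosed with chemical at DIV 7 with media change, and were fixed at DIV 12 (288.33 h). Synaptophysin puncta on MAP2-positive cell bodies per neuron were counted by high-content imaging versus DMSO.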

Read-out in experiment [8]: Vascular cell adhesion molecule 1 (VCAM1), VCAM1 (gene 7412)
Put plainly: BSK_hDFCGF_VCAM1: BioMAP Diversity Plus: hDFCGF Assay for Vascular cell adhesion molecule 1 (VCAM1) Biomarker Activity (AID 2283065). The following applies: actives raise or lower the signal; primary human foreskin fibroblasts. The essentials: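 Primary human foreskin fibroblasts (hDFCGF system) were dosed with chemical and VCAM-1 was measured by ELISA 24 h later. Bidirectional curve fitting used DMSO as negative control and activity baseline.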

Read-out in experiment [9]: Glutamate-cysteine ligase catalytic (GCLC), GCLC (gene 2729)
Put plainly: LTEA_HepaRG_GCLC: Life Technologies and Expression Analysis (LTEA) Assay for Glutamate-cysteine ligase catalytic (GCLC) using HepaRG (AID 2283498). The settings on record: actives raise or lower the signal; mRNA level, 48 h. The essentials: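 Differentiated HepaRG cells exposed 48 h in serum-free induction medium, eight-point half-log series topping at 100 uM in 0.5% DMSO, duplicates. GCLC mRNA by qRT-PCR normalized to ACTB, GAPDH and POLR2A, fitted bidirectionally versus DMSO.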

The nature of experiment [10]: CCTE_Simmons_MITO_inhib_resp_rate: CCTE's HepG2 Seahorse XF Respirometric Screening Assay at Inhibited Respiratory State [full ETC block], Simmons Lab (AID 2284006). The following applies: actives raise or lower the signal. The essentials:
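Compound injected onto HepG2 cells (125 nM–100 uM final, 7 points); FCCP then rotenone/antimycin A added. Oxygen consumption read every 6 min (3 min mix, 3 min measure) for 72 min. Inhibited-state OCR fitted against DMSO.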

Read-out in experiment [11]: Plasminogen activator inhibitor-1 (PAI1), SERPINE1 (gene 5054)
Put plainly: BSK_hDFCGF_PAI1: BioMAP Diversity Plus: hDFCGF Assay for Plasminogen activator inhibitor-1 (PAI1) Biomarker Activity (AID 2283066). The settings on record: actives raise or lower the signal; primary human foreskin fibroblasts. The essentials: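 Primary dermal fibroblasts (human foreskin), hDFCGF system; compound 24 h; PAI-1 by ELISA; bidirectional fit vs DMSO control.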

Experiment [12] can be described thus: BSK_KF3CT_SRB: Viability Assessment in the BioMAP Diversity Plus: KF3CT Assay (AID 2283069).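 Further: total protein by sulforhodamine B staining as a cytotoxicity measure; read 24 h after compound addition; fitted for both signal gain and loss against DMSO baseline.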 The following applies: primary human keratinocytes with fibroblasts. The essentials:
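Human keratinocyte and foreskin fibroblast co-culture exposed to chemical for 24 h. Total protein measured in parallel cultures by 0.1% sulforhodamine B staining after 10% TCA fixation, read at 560 nm; bidirectional fit relative to DMSO.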

Read-out in experiment [13]: Vascular cell adhesion molecule 1 (VCAM1), VCAM1 (gene 7412)
Put plainly: BSK_CASM3C_VCAM1: BioMAP Diversity Plus: CASM3C Assay for Vascular cell adhesion molecule 1 (VCAM1) Biomarker Activity (AID 2283055). The following applies: actives raise or lower the signal; primary human coronary artery smooth muscle cells.

Read-out in experiment [14]: Interleukin-1 alpha (IL1a), IL1A (gene 3552)
Put plainly: BSK_KF3CT_IL1a: BioMAP Diversity Plus: KF3CT Assay for Interleukin-1 alpha (IL1a) Biomarker Activity (AID 2283070). The following applies: actives raise or lower the signal; primary human keratinocytes with fibroblasts. The essentials: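 Primary human keratinocyte plus foreskin fibroblast co-culture, dosed and measured at 24 h in 96-well plates. IL-1a level quantified by ELISA; bidirectional fit relative to DMSO.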

Read-out in experiment [15]: Urokinase-type plasminogen activator receptor (uPAR), PLAUR (gene 5329)
Put plainly: BSK_CASM3C_uPAR: BioMAP Diversity Plus: CASM3C Assay for Urokinase-type plasminogen activator receptor (uPAR) Biomarker Activity (AID 2283054).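 Further: cell-surface uPAR protein level quantified by ELISA.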 The following applies: actives raise or lower the signal; primary human coronary artery smooth muscle cells.

The nature of experiment [16]: BSK_SAg_Proliferation: Cell Proliferation Assessment in the BioMAP Diversity Plus: SAg Assay (AID 2283095).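 Further: relative cell number as total protein by SRB absorbance in sub-confluent culture.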 The following applies: primary human HUVEC with PBMC. In short, it runs like this:
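Cells (endothelium plus PBMC, human primary) were dosed with chemical, cultured 96 h, fixed in 10% TCA and stained with 0.1% SRB. Absorbance at 560 nm gave relative protein, fitted bidirectionally relative to DMSO.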

Read-out in experiment [17]: Fatty acid synthase (Homo sapiens) (UniProt P49327)
UniProt P49327, sequence (P49327 whole entry, looked up): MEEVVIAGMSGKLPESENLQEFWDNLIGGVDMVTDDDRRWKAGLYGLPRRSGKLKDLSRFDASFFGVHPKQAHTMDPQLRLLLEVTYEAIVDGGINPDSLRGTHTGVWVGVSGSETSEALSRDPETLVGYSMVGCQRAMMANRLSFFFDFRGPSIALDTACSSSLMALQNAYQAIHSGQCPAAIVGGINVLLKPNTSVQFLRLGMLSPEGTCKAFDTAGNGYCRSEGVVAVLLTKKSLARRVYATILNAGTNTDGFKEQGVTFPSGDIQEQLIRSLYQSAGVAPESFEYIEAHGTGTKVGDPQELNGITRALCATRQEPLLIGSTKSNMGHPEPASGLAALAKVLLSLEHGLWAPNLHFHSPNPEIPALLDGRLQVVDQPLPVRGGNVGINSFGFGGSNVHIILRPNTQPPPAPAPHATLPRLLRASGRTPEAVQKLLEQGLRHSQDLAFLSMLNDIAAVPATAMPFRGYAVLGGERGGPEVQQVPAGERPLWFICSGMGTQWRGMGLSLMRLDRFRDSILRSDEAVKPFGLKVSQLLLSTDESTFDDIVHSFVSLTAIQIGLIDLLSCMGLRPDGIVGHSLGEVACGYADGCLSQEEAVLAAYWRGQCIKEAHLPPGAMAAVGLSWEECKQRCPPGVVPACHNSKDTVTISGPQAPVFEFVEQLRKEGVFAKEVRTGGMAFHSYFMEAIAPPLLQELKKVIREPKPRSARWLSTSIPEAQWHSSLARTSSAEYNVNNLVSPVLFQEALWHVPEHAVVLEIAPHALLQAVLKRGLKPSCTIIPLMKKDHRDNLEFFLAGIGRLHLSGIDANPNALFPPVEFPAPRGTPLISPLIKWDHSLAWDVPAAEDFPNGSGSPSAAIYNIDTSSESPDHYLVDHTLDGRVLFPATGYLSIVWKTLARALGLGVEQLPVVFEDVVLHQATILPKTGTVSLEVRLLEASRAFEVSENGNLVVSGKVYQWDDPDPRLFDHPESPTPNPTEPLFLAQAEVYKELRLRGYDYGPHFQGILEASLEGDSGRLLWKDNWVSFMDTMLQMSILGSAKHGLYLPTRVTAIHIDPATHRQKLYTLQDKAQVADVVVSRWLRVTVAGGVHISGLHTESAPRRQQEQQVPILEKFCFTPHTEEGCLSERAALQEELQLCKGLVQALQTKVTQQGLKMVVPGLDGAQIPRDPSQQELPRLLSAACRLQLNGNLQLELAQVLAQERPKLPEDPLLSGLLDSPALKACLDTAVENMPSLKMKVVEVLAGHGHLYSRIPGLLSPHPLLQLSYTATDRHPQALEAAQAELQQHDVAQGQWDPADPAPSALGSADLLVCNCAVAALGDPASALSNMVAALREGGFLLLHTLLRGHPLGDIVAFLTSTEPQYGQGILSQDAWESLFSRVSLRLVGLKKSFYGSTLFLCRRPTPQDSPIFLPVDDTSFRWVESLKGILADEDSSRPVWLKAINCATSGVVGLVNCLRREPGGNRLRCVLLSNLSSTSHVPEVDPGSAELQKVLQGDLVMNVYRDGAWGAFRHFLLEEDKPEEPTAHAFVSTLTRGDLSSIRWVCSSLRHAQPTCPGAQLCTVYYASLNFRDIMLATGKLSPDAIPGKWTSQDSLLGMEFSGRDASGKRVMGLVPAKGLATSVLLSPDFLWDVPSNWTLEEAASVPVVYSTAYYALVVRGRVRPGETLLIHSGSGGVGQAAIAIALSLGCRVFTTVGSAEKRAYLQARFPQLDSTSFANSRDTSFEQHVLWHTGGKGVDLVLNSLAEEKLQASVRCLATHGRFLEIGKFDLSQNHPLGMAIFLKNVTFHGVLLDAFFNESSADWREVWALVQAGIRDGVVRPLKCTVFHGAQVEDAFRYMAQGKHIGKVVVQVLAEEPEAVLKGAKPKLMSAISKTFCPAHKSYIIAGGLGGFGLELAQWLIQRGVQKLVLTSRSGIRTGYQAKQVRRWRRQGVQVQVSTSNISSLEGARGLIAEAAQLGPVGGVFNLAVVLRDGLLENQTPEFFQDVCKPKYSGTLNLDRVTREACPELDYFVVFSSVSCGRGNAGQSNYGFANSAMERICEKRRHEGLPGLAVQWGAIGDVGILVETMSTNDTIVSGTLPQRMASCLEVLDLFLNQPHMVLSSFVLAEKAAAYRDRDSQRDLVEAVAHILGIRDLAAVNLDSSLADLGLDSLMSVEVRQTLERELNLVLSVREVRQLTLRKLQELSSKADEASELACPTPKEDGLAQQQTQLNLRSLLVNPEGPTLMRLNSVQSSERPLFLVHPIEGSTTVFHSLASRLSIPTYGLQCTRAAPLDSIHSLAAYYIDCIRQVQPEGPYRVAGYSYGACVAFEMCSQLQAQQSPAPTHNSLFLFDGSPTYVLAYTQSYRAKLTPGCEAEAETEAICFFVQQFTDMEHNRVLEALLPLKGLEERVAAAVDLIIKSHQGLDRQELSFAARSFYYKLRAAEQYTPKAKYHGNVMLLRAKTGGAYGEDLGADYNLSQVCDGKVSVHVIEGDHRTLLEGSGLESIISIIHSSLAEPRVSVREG
Put plainly: LTEA_HepaRG_FASN: Life Technologies and Expression Analysis (LTEA) Assay for Fatty Acid Synthase (FASN) using HepaRG (AID 2283448). The settings on record: actives raise or lower the signal; mRNA level, 48 h. The essentials:
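FASN expression changes, up or down relative to 0.5% DMSO, were measured by qRT-PCR in human HepaRG cells after 48 h treatment with chemicals at eight concentrations (half-log steps from 100 uM).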

Read-out in experiment [18]: Tumor necrosis factor receptor 1 (TNFRSF1A), TNFRSF1A (gene 7132)
Put plainly: LTEA_HepaRG_TNFRSF1A: Life Technologies and Expression Analysis (LTEA) Assay for Tumor necrosis factor receptor 1 (TNFRSF1A) using HepaRG (AID 2283535). The settings on record: actives raise or lower the signal; mRNA level, 48 h. In short, it runs like this:
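Differentiated human HepaRG cells were exposed in duplicate for 48 h in serum-free induction medium to eight concentrations (top 100 uM, half-log steps, 0.5% DMSO). TNFRSF1A mRNA was quantified by qRT-PCR, normalized to ACTB, GAPDH and POLR2A, then fitted bidirectionally against DMSO.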

Read-out in experiment [19]: urokinase plasminogen activator (uPA), PLAU (gene 5328)
Put plainly: BSK_KF3CT_uPA: BioMAP Diversity Plus: KF3CT Assay for urokinase plasminogen activator (uPA) Biomarker Activity (AID 2283075). The settings on record: actives raise or lower the signal; primary human keratinocytes with fibroblasts. The essentials:
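Primary human keratinocyte/foreskin fibroblast co-culture exposed to chemical; uPA measured by ELISA at 24 h. Bidirectional fit versus DMSO, with parallel SRB total-protein staining for cytotoxicity.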

In experiment [20] the target is Estrogen receptor (Homo sapiens) (UniProt P03372). Put plainly: OT_ER_ERaERa_1440: Odyssey Thera (OT) 24-hour HEK293T Protein-Complementation Assay for Estrogen Receptor-alpha/-alpha Homodimer (AID 2283349; active means hit-call score of the fitted dose curve at least 0.9, where 1 is the maximum;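 further: hits raise fluorescence above DMSO for agonists and antagonists alike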). In short, it runs like this: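 HEK293T cells stably expressing the human ER alpha ligand-binding domain (aa 310-547) as a homodimer PCA were dosed for 24 hours. Fluorescence intensity was read by laser scanning cytometry, and gain of signal was fitted relative to DMSO vehicle.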
UniProt P03372, sequence (P03372 whole entry, looked up, the tested form may be a part): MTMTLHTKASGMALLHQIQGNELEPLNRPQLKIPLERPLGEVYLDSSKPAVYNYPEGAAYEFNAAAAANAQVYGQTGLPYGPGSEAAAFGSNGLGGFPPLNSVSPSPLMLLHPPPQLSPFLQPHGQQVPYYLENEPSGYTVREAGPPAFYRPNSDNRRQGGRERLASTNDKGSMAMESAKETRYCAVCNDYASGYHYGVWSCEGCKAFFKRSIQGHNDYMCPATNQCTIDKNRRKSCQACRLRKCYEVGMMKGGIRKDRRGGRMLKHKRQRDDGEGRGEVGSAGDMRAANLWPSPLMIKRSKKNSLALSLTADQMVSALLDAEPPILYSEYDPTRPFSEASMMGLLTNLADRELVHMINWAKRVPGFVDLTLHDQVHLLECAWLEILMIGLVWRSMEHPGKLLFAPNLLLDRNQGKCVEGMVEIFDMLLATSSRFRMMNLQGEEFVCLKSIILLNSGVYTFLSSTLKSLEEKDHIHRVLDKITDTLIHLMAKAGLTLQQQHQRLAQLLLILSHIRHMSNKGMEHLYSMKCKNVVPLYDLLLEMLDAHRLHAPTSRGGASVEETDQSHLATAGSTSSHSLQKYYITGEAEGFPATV

For some assays here: This list holds what a sample rich in hits left over. The list shows a part of the results, in another mix than the full data. Records with an inconclusive call do not appear. Some compounds were tested as several samples or in several runs, with calls that do not always agree. Active and inactive are the calls of the source. How the source made its calls, unless noted: active means hit-call score of the fitted dose curve at least 0.9, where 1 is the maximum; inactive means score below 0.9.

The term AC50 denotes the concentration at which the activity in the assay is half-maximal.

`COP(=O)(OC)C(O)C(Cl)(Cl)Cl` (stereo not given): the outcome in experiment [1], in experiment [2], in [4] and in [7] was inactive. The results for the half-maximal activity concentration (AC50) in [3], in experiment [5] and in experiment [6] were active: 18.4 µM, active: 21.9 µM and active: 50 µM, respectively.
`CCN(CC)C(=O)C(C)Oc1cccc2ccccc12` (stereo not given): the outcome in experiment [8] and in [9] was inactive. In addition, in experiment [10], the AC50 was active: 81.2 µM.
On to `O=S(=O)(c1ccc(Cl)cc1)c1cc(Cl)c(Cl)cc1Cl`, for which, in experiment [11], the AC50 was active: 3.97 µM.
Regarding `CC(C)Nc1ccc(Nc2ccccc2)cc1`, the AC50 in experiment [12] is active: 30.4 µM.
`O=C1c2ccccc2C(=O)N1SC(Cl)(Cl)Cl`: in experiment [13], the AC50 was active: 15.1 µM.
Consider `CCOP(=O)(OCC)OC(=CCl)c1ccc(Cl)cc1Cl`, for which the outcome in experiment [14] was inactive.
Take `CC1(C(=O)Nc2ccc(O)c(Cl)c2Cl)CCCCC1`: the result in experiment [15], in experiment [17] and in experiment [18] was inactive. Further, in [16], the AC50 is active: 27.7 µM.
On to `CCCCCCCc1ccc(O)cc1`, for which the AC50 in [19] was active: 34.4 µM; in experiment [20], active: 26.6 µM.

Source of the values: PubChem BioAssay (EPA / NIEHS).
